Assay [1] deals with T1, PXL1-CLuc (Arabidopsis thaliana) (UniProt Q9FRS6).
T1 sequence: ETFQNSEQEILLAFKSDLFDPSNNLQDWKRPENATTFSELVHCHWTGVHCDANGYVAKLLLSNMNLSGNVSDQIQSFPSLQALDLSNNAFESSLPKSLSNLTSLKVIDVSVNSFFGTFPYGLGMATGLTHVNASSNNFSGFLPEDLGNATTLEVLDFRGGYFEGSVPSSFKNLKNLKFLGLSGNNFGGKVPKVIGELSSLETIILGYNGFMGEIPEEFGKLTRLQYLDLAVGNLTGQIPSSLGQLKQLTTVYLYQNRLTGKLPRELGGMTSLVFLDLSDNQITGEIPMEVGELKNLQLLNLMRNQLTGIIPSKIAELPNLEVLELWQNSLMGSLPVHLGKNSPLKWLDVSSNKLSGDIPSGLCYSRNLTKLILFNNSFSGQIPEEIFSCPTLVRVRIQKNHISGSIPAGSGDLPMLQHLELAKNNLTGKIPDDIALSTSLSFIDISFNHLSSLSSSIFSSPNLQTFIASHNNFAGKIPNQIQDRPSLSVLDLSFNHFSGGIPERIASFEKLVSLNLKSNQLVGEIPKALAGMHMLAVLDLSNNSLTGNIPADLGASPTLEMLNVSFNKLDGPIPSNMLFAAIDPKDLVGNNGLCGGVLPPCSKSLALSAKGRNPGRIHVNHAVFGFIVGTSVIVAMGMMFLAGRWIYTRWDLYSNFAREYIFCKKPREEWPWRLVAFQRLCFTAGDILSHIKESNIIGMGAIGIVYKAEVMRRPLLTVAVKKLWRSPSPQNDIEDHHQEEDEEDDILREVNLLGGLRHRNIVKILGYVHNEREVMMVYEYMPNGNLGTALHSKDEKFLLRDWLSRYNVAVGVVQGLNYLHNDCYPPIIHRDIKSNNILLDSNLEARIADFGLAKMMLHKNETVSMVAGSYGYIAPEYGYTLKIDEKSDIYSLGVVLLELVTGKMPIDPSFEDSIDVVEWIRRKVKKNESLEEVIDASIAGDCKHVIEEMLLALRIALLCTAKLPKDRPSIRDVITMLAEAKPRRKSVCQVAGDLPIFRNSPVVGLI
The assay is described as follows: split reporter; luciferase complementation imaging (LCI) in Nicotiana benthamiana leaves; PXL1-CLuc with NLuc fusions, 48 h after infiltration, luciferin sprayed.

By UniProt entry, the sequences of proteins in these tests, tags left out.
UniProt Q9LR78: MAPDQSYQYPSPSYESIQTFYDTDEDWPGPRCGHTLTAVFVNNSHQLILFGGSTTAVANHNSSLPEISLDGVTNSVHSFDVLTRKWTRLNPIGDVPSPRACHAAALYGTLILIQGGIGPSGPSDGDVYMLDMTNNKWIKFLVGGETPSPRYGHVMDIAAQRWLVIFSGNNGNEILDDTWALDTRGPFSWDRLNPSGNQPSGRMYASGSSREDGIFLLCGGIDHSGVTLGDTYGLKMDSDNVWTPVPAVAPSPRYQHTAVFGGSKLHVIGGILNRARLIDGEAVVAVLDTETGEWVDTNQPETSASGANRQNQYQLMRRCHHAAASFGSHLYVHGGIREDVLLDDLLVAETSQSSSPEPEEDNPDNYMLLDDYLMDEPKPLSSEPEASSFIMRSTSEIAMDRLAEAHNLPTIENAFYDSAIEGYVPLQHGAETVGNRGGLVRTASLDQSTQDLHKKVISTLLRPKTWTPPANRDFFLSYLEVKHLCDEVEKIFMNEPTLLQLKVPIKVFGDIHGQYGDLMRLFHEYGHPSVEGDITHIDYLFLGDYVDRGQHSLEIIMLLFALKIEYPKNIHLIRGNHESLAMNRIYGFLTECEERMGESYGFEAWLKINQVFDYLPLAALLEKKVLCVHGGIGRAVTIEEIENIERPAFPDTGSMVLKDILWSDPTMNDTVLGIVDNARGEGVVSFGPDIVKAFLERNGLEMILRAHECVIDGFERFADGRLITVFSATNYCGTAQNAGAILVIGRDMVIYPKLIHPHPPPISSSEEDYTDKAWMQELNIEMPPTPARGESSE

In assay [2] the target is T2, BSL1-FLAG (Arabidopsis thaliana) (UniProt Q8L7U5).
T2 sequence: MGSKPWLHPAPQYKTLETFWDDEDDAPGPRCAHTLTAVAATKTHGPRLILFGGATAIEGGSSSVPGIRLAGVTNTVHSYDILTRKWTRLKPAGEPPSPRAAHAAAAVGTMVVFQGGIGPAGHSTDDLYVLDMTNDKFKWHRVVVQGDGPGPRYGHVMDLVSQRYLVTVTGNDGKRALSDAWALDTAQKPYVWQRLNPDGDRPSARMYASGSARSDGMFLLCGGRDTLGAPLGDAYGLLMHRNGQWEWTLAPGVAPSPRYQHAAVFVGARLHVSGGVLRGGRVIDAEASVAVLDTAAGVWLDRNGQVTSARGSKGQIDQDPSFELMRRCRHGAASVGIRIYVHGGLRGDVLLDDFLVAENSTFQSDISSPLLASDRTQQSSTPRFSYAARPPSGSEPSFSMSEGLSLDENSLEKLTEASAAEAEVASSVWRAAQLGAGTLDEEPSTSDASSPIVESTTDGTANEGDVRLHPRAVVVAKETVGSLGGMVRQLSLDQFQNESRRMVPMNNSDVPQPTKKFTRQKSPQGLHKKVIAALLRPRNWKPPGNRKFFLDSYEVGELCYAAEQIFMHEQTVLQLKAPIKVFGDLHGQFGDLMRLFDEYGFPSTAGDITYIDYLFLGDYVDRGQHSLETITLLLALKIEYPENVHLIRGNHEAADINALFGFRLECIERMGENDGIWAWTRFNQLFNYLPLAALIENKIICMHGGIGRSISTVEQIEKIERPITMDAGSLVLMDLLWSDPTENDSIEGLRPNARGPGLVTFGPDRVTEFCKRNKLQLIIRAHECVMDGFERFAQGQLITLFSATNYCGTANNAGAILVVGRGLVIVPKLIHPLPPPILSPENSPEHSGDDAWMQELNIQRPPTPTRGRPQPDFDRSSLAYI
Nature of the assay: co-IP; PXL1-MYC and BSL1-FLAG co-expressed in Nicotiana benthamiana with or without CLE19 peptide treatment; extract incubated with anti-FLAG beads at 4°C for 3 h; blots with anti-MYC and anti-FLAG.

No constants are given. Whether binding was seen depends on the method and setting. In cells and extracts the contact can be indirect. Some results given as binding are weak or reduced against the parent protein; the word gives no strength. Where a sequence is shown, tags or fusion partners need not be part of it.

Take “BSU1-NLuc (from UniProt Q9LR78 1-793) (enzyme)”: the binding entry in assay [1] was “no binding”.

B1: PXL1-MYC (receptor, UniProt Q9FRS6 24-1029)
chain: T1 sequence
On to B1, for which, in assay [2], the binding result is on record as “binds”.

B2: BSL2-NLuc (enzyme, UniProt Q9SJF0 1-1018)
chain: MDEDSSMVADNDQDREFQSLDGGQSPSPMERETPQQMNDQSPPPEGGSVPTPPPSDPNPATSQQQAAAVVGQEQQPALVVGPRCAPTYSVVDAMMDKKEDGPGPRCGHTLTAVPAVGDEGTPGYIGPRLVLFGGATALEGNSGGTGTPTSAGSAGIRLAGATADVHCYDVLSNKWTRLTPFGEPPTPRAAHVATAVGTMVVIQGGIGPAGLSAEDLHVLDLTQQRPRWHRVVVQGPGPGPRYGHVMALVGQRYLMAIGGNDGKRPLADVWALDTAAKPYEWRKLEPEGEGPPPCMYATASARSDGLLLLCGGRDANSVPLASAYGLAKHRDGRWEWAIAPGVSPSSRYQHAAVFVNARLHVSGGALGGGRMVEDSSSVAVLDTAAGVWCDTKSVVTSPRTGRYSADAAGGDASVELTRRCRHAAAAVGDLIFIYGGLRGGVLLDDLLVAEDLAAAETTYAASHAAAAAATNSPPGRLPGRYGFSDERNRELSESAADGAVVLGSPVAPPVNGDMHTDISPENALLPGTRRTNKGVEYLVEASAAEAEAISATLAAAKARQVNGEVELPDRDCGAEATPSGKPTFSLIKPDSMGSMSVTPAGIRLHHRAVVVAAETGGALGGMVRQLSIDQFENEGRRVSYGTPESATAARKLLDRQMSINSVPKKVIAHLLKPRGWKPPVRRQFFLDCNEIADLCDSAERIFASEPTVLQLKAPIKIFGDLHGQFGDLMRLFDEYGSPSTAGDISYIDYLFLGDYVDRGQHSLETISLLLALKVEYQHNVHLIRGNHEAADINALFGFRIECIERMGERDGIWVWHRINRLFNWLPLAASIEKKIICMHGGIGRSINHVEQIENIQRPITMEAGSIVLMDLLWSDPTENDSVEGLRPNARGPGLVTFGPDRVMEFCNNNDLQLIVRAHECVMDGFERFAQGHLITLFSATNYCGTANNAGAILVLGRDLVVVPKLIHPLPPALSSPETSPERHIEDTWMQELNANRPATPTRGRPQNSNDRGGSLAWM
In the case of B2, the binding result in assay [1] was “binds”.

B3: BSL1-NLuc (enzyme, UniProt Q8L7U5 1-881)
chain: T2 sequence
Regarding B3, the binding result in assay [1] is on record as “binds”.

B4: BSL3-NLuc (enzyme, UniProt Q9SHS7 1-1006)
chain: MDLDSSMVPENDQDPIATSENQSPMEEKEEASEQQTGSESESASLTPSLPPPSQQQQQQQQQPQVTAVVGPRCAPTYSVVNAIIEKKEDGPGPRCGHTLTAVPAVGEEGTSSYIGPRLILFGGATALEGNSGGTGTPTSAGSAGIRLAGATADVHCYDVLSNKWSRLTPYGEPPSPRAAHVATAVGTMVVIQGGIGPAGLSAEDLHVLDLTQQRPRWHRVVVQGPGPGPRYGHVMALVGQRYLMAIGGNDGKRPLADVWALDTAAKPYEWRKLEPEGEGPPPCMYATASARSDGLLLLCGGRDANSVPLASAYGLAKHRDGRWEWAIAPGVSPSARYQHAAVFVNARLHVSGGALGGGRMVEDSSSVAVLDTAAGVWCDTKSVVTSPRTGRYSADAAGGDASVELTRRCRHAAAAVGDLIFIYGGLRGGVLLDDLLVAEDLAAAETTSAASHAAAAAAATNTPPGRSPGRYGFSDERTGELPESAPDAVVLGSPVAPPVNGDMYTDISTENAMVPGIRRTSKGVEYLVEASAAEAEAISATLAAAKARQVNGEVELPDRDRGAEATPSGKPSLSLIKPDSAVPNSVIPAGVRLHHRAVVVAAETGGALGGMVRQLSIDQFENEGRRVSYGTPESATAARKLLDRQMSINSVPKKVVAHLLKPRGWKPPVRRQFFLDCNEIADLCDSAERIFSSEPTVLQLKAPIKIFGDLHGQFGDLMRLFDEYGSPSTAGDISYIDYLFLGDYVDRGQHSLETITLLLALKVEYQHNVHLIRGNHEAADINALFGFRIECIERMGERDGIWVWHRINRLFNWLPLAALIEKKIICMHGGIGRSINHVEQIENIQRPITMEAGSIVLMDLLWSDPTENDSVEGLRPNARGPGLVTFGPDRVMEFCNNNDLQLIVRAHECVMDGFERFAQGHLITLFSATNYCGTANNAGAILVLGRDLVVVPKLIHPLPPAITSPETSPERHIEDTWMQELNVNRPPTPTRGRPQNPNDRGSLAWI
B4: the binding result in assay [1] was “binds”.

The values above are taken from article PMC12678687.
